Experimental data reported in PubChem BioAssay AID1508623 (National Center for Advancing Translational Sciences (NCATS), 2021).
The whole screen tested about 48,000 compounds, of which about 450 (0.94%) were called active. About 19% were inconclusive and are not listed. The call rests on the fitted dose curve; in most records, active means well fitted inhibition curve with a large enough effect; inconclusive means small, poorly fitted or top-dose-only effect; inactive means no such curve, though single readings can be large or run the other way. Some of the results follow.

Experiment: Primary qHTS for Identification of Small Molecule Inhibitors of Huntingtin Promoter Activity; further: nearly all actives have a fitted effect of over 50% in size
Settings: HEK293 HTT promoter firefly luciferase reporter (activity 0% = vehicle and -100% = no light), 24 h; series mostly up to 57.5 µM; activity change, negative = inhibition: at the top concentration
How it was run: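 Firefly luciferase signal from promoter-reporter HEK293 cells was scaled between vehicle (0%) and zero RLU (-100%). Compounds were tested at final concentrations of up to 57.5 uM over 24 h at 37 degrees C. PTC124 at 50 uM final served as control inhibitor.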

| SMILES | activity change, negative = inhibition |
| --- | --- |
| CCN1CCN(c2ncc3c(n2)CCN(Cc2ccc(Br)s2)C3)CC1 | inactive: -20.9% |
| CCc1ccc(-c2[nH]nc3nc(-c4ccc(OC)cc4)cc(C(=O)NCCc4ccc(OC)c(OC)c4)c23)cc1 | inactive: -50.8% |
| CCOc1ccc(NC(=O)CSc2nnc(CNC(=O)c3c(F)cccc3Cl)o2)cc1 | inactive: -7.76% |
| Cc1ccc2c(c1)N(C(=O)NCc1ccccc1)CCO2 | inactive: 2.93% |
| CCC(C)NC(=O)c1ccc2c(=O)n3c(nc2c1)CCCCC3 (configuration not stated) | inactive: 10.7% |
| Cc1ccc(NC(=O)Cn2nnc3sc(-c4ccccc4)cc3c2=O)cc1Cl | inactive: 15.2% |
| COc1ccc(C(=O)NCC2(N3CCN(C)CC3)CCCCC2)cc1 | inactive: -10.3% |
| COC(=O)c1ccc(Cl)cc1NC(=O)N(Cc1ccc(C)o1)C1CCN(C(C)=O)CC1 | inactive: -14.8% |
| COc1ccc(C)cc1NS(=O)(=O)c1ccc2c(c1)n(C)c(=O)n2C | inactive: -6.92% |
| CCC(CC)c1nn2c(=O)cc(COc3ccc(NC(=O)c4cccc(Cl)c4)cc3)nc2s1 | inactive: -11.5% |
| CCn1c(=O)c(=O)n(CC)c2cc(N3CCCCC3)c(NC(=O)c3cccc(F)c3)cc21 | inactive: -2.78% |
| Cc1nnc2c(Nc3cccc(O)c3)nc3ccccc3n12 | inactive: 15.6% |
| CCCN1Cc2cccc(C(=O)Nc3cc(C)cc(C)c3)c2C1=O | inactive: -6.5% |
| CC(=O)Nc1ccc(C)cc1-c1nc2ccccc2n(CC(=O)Nc2cc(Cl)ccc2C)c1=O | inactive: -9.37% |
| COc1ccc(Cl)cc1NC(=O)CCC(=O)N1CCOc2ccccc21 | inactive: -29.9% |
| O=C1c2cccc3c2[C@H](CCC3)CN1[C@@H]1CN2CCC1CC2 | inactive: 6.13% |
| COc1ccc(NC(=O)CSc2nc(-c3ccco3)cc(C(F)(F)F)n2)cc1 | inactive: -28.8% |
| COc1ccc(CC(=O)NCC(c2ccc(N(C)C)cc2)N2CCOCC2)cc1 (configuration not stated) | inactive: -5.25% |
| CC(C)c1ccc(OC(=O)c2cc(-c3ccc(Cl)cc3)on2)cc1 | inactive: -15.1% |
| Cc1ccc(-n2ncc3c(NCCCn4ccnc4)ncnc32)cc1Cl | inactive: -19.5% |
| COc1ccc(N2C(=O)C(CC(=O)Nc3ccc(F)cc3)N(Cc3ccc4c(c3)OCO4)C2=O)cc1 (configuration not stated) | inactive: -22.4% |
| CCN(CC)C(=O)Cn1c(=O)nc(-c2ccccc2F)c2cc(Cl)ccc21 | inactive: -6.12% |
| CCCNC(=O)N1[C@H](c2ccc(C)s2)[C@@H](C)C(=O)[C@@H](C)[C@@H]1c1ccc(C)s1 | inactive: -15.6% |
| NC(=O)COCCN1CCN(C(c2ccccc2)c2ccc(Cl)cc2)CC1 (configuration not stated) | inactive: 2.77% |
| O=C1c2[nH]nc(-c3ccccc3O)c2C(c2ccccc2F)N1Cc1ccncc1 (configuration not stated) | inactive: -11.1% |
| CCOC(=O)Cc1ccc(NC(=O)NCc2cccn2Cc2ccccc2)cc1 | inactive: -23.8% |
| COc1ccc(-n2c(=O)c3sc4ccccc4c3n(CC(=O)Nc3ccccc3F)c2=O)cc1 | inactive: 13.2% |
